SMILES strings stand for the structures. The campaign covered roughly 310,000 compounds. About 2,200 (0.71%) showed an effect of 50% or more. The effect is printed as a negative number. This is one part of the list.

Sequence of human ether-à-go-go-related gene (hERG) potassium channel (Q12809 whole entry, looked up): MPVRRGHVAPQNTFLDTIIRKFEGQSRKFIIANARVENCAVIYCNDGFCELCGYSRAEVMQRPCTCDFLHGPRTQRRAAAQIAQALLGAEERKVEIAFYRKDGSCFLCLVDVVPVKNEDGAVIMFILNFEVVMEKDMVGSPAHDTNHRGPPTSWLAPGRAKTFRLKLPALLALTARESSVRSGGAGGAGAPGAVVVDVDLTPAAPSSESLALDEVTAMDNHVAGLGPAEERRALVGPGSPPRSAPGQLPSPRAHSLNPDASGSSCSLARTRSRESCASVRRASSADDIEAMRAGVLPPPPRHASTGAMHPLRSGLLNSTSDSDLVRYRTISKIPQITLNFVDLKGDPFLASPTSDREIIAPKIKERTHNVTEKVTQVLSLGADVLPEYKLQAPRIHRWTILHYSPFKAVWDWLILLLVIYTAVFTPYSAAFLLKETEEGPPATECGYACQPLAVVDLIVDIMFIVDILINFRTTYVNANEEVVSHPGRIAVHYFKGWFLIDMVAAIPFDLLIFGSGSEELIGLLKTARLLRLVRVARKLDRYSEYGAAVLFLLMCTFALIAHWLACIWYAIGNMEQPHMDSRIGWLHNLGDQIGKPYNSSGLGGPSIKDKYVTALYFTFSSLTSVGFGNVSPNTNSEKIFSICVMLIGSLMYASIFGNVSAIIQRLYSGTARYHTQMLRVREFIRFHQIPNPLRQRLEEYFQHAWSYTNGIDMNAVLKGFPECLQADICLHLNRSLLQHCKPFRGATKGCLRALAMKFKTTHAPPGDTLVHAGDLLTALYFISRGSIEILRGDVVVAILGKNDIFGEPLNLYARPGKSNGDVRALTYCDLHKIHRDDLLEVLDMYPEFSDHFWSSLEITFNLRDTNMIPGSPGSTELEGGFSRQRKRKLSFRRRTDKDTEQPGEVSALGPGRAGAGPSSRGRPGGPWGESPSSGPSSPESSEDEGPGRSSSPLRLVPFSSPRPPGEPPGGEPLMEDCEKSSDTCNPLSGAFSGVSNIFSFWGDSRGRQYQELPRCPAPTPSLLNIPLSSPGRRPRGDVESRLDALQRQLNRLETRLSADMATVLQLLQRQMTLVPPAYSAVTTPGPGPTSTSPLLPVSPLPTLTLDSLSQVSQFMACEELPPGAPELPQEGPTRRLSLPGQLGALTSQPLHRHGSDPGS

This assay addresses human ether-à-go-go-related gene (hERG) potassium channel (human, UniProt Q12809). The experiment in a line: primary screen, population patch clamp on CHO cells stably expressing hERG.
In the case of `CCOC(=O)N1CCN(S(=O)(=O)c2ccc(OC)c(Cl)c2)CC1`, the “hERG current change (%, negative = inhibition) at 1uM” value was determined as 7.9%. With `COc1cc(-c2cn[nH]c2N)cc(OC)c1OC` the figure was 8.63%; with `Cc1ccc(-c2nc(CS(=O)CC(=O)NCCN3CCCCC3C)c(C)o2)cc1` (centres unmarked), 13.8%; with `COc1ccccc1CCN=C(N)NS(=O)(=O)c1ccc(F)cc1`, 11.8%. With `CN(Cc1cnc2nc(N)nc(N)c2n1)c1ccc(C(=O)N[C@@H](CCC(=O)O)C(=O)O)cc1` the figure was 10.9%. With `COc1ccc2c(c1)C(C)=CC(C)(C)N2C(=O)CSc1nnc(-c2ccc(C)cc2)o1` the figure was 14.1%; with `COc1ccccc1/C=C/C(=O)OCC(=O)c1c[nH]c2ccccc12`, 7.31%. As to `CN1CCc2nc(SCc3cccc(Br)c3)c(C#N)cc2C1`, the “hERG current change (%, negative = inhibition) at 1uM” value is on record as 10.1%.

Take `CCC1(C)Cc2c(sc(NC(=S)NC(=O)c3ccccc3)c2C#N)CO1` (centres unmarked): the “hERG current change (%, negative = inhibition) at 1uM” value is listed as 14.7%. Under `COc1ccc(NS(=O)(=O)c2cccc(C(=O)N3CCC3)c2)cc1` stands 16.6%. Under `N#Cc1ccc(OCc2nnc(SCC(=O)c3ccccc3)n2-c2ccccc2)cc1` stands -20.5%; under `O=C(NCc1cccnc1)c1ccccc1NS(=O)(=O)c1ccc(F)cc1F`, 13.9%; under `Cc1nc(N2CCN(Cc3ccc(Cl)cc3)CC2)c2oc3ccccc3c2n1`, 11.2%.

In the case of `Cn1cc(C(=O)C(=O)N2CCCc3ccccc32)c2ccccc21`, the “hERG current change (%, negative = inhibition) at 1uM” value turned out to be 12.3%.

In the case of `COc1ccc(S(=O)(=O)n2c(CCN3CCOCC3)nc3ccccc32)cc1`, the “hERG current change (%, negative = inhibition) at 1uM” value was -21.3%. With `CCOc1ccc(NC(=O)CCN2C(=O)c3ccccc3C2=O)cc1` the figure was 11.7%; with `CC(C(=O)O)C(=O)O`, 23.5%; with `CN(C)c1ccc(-n2cccc2/C=C/[N+](=O)[O-])cc1`, 5.61%.

On to `CC(=O)Nc1ccc(S(=O)(=O)NCCNC(=O)c2ccccc2F)cc1`, for which the “hERG current change (%, negative = inhibition) at 1uM” value stood at 11.8%. Consider `O=C1CC(N2CCC(c3nc4ccccc4s3)CC2)C(=O)N1` (centres unmarked), for which the “hERG current change (%, negative = inhibition) at 1uM” value was determined as 4.38%.

As to `CCCCC(O)(c1ccccc1)C(CN1CCOCC1)c1ccccc1.Cl` (centres unmarked), the “hERG current change (%, negative = inhibition) at 1uM” value is 10.8%. For `Cc1ccc(C(=O)NCC(=O)OCC(=O)NC2CCCC(C)C2C)s1` (centres unmarked), the “hERG current change (%, negative = inhibition) at 1uM” value is on record as -0.309%. Under `Cl.Nc1cccc(CCc2nc3ccccc3[nH]2)c1` stands -5.05%; under `COc1cc(CNC(=O)CCn2nc(C)c3c(C)n(-c4ccccc4)nc3c2=O)cc(OC)c1OC`, 15.4%. With `Cc1onc(-c2ccccc2)c1C(=O)NC(=S)NNC(=O)c1ccc(O)cc1` the figure was 9.65%. For `Cc1ccc(C2C(C#N)=C(N)Oc3n[nH]c(-c4cccnc4)c32)o1` (centres unmarked), the “hERG current change (%, negative = inhibition) at 1uM” value is on record as 22.6%. Under `CCCCNC(c1ccccc1)c1ccncc1` (centres unmarked) stands 8.56%. `O=C(C1CCN(C2CC(=O)N(c3ccc(F)cc3)C2=O)CC1)N1CCOCC1` (centres unmarked): the “hERG current change (%, negative = inhibition) at 1uM” value was determined as 11.2%.

Consider `O=C(Cn1cncn1)c1ccc(Cl)cc1`, for which the “hERG current change (%, negative = inhibition) at 1uM” value came out at 8.74%.

In the case of `CCOc1ccc(NC(=O)c2ccc(NC(=S)NC3CCCCC3)cc2)cc1`, the “hERG current change (%, negative = inhibition) at 1uM” value was 16.3%.

With `CC(C)c1ccc(NC(=O)CSc2nc3ccsc3c(=O)n2Cc2ccc(C(=O)O)cc2)cc1`, the “hERG current change (%, negative = inhibition) at 1uM” value turned out to be 8.26%. With `Cc1c(C(=O)O)cccc1-c1ccc(C=O)o1` the figure was 12.3%; with `CCCc1nc2c([nH]1)C(c1cccnc1)C(C#N)=C(N)O2` (centres unmarked), 13.1%; with `Cc1cccc(-c2nc3c(c(=O)c4ccccc4n3C)c(=O)n2-c2ccccc2)c1`, 12.3%. With `Cc1[nH]oc(=O)c1N=Nc1ccc2[nH]c(=O)[nH]c2c1` the figure was 11.3%; with `CC(C)c1ccc(NC2CCCN(C(=O)CCN3CCCC3=O)C2)cc1` (centres unmarked), 13.5%. With `CN(CC(=O)Nc1ccccc1Cl)C(=O)CSc1nncs1` the figure was 15.7%; with `Cc1ccc(C)c(N2CCN(c3ccc(N4C(=O)COCC4=O)cc3[N+](=O)[O-])CC2)c1`, 15.7%. Turning to `COc1ccc2nc(C)c(C(=O)NN)cc2c1`, the “hERG current change (%, negative = inhibition) at 1uM” value amounted to 35.1%.

`CCCNC(=O)Cn1cnc([N+](=O)[O-])n1`: the “hERG current change (%, negative = inhibition) at 1uM” value came to 14.6%. With `CCCCC(=O)N/N=C/c1c(O)n(CC)c(=S)n(CC)c1=O` the figure was 11.4%. With `CCCn1c(SCC(=O)c2ccc3c(c2)NC(=O)CO3)nc2ccccc21` the figure was 8.63%. Under `Cc1nc(C(Cl)(Cl)Cl)nc2[nH]ccc(=O)c12` stands 8.68%; under `Cc1cc(NC(=O)CSc2ccc(-c3ccccc3)nn2)no1`, 2.63%; under `CCCCN1CN(S(=O)(=O)c2ccc(OC)cc2)c2nc3ccccc3nc21`, -5.93%. Take `CC1(C)NC(=O)N(Cc2cc(=O)n3ccsc3n2)C1=O`: the “hERG current change (%, negative = inhibition) at 1uM” value was 16.6%.

Take `CCC1CCCCN1C(=O)c1sc2ncnc(N(CC)CC)c2c1C` (centres unmarked): the “hERG current change (%, negative = inhibition) at 1uM” value was found to be 3.18%.

Consider `O=C(Nn1c(-c2ccncc2)nc2ccccc2c1=O)c1ccccc1Br`, for which the “hERG current change (%, negative = inhibition) at 1uM” value is on record as 13.6%. Turning to `O=C(COC(=O)c1cccc([N+](=O)[O-])c1)NCc1cccs1`, the “hERG current change (%, negative = inhibition) at 1uM” value was 9.54%. Under `Cc1nc2ncnn2c(C)c1Cc1ccccc1Cl` stands 11.7%; under `COc1ccccc1C(=O)N/C(=N/c1nc(C)cc(C)n1)Nc1ccccc1`, 8.05%. Consider `CC(=O)Nc1ccc(S(=O)(=O)NC2(C(F)(F)F)NC(=O)N(c3ccc(Cl)cc3)C2=O)cc1` (centres unmarked), for which the “hERG current change (%, negative = inhibition) at 1uM” value amounted to 16.1%.

On to `CC1(C)OC2OC(C(=O)N/N=C/c3ccccc3F)C3OC(C)(C)OC3C2O1` (centres unmarked), for which the “hERG current change (%, negative = inhibition) at 1uM” value was found to be 10.9%. Under `CC(C)COC(=O)C1C2C=CC3(CN(C(C)c4ccc(Br)cc4)C(=O)C13)O2` (centres unmarked) stands 6.84%; under `CC(=O)Nc1ccccc1OCC(=O)NC(C)c1ccc(F)cc1` (centres unmarked), 8.67%. For `COC(=O)C1=CN(Cc2cccs2)C=C(C(=O)OC)C1c1cccc(OC)c1OC`, the “hERG current change (%, negative = inhibition) at 1uM” value is given as 5.14%. With `COc1ccccc1C1CCN(C(=S)Nc2ccc(Br)cc2)CC1` the figure was 8.67%; with `Cc1cc(C)cc(SCc2noc(C(=O)NCCC(C)C)c2C(=O)NCCC(C)C)c1`, 11.5%. Under `COc1ccc(CC(=O)N/N=C(\C)c2cccs2)cc1` stands 5.82%; under `CCCC1Cc2nc(N3CCCCC3)c(C#N)cc2CO1` (centres unmarked), 3.43%. With `O=[N+]([O-])C(=C1Nc2ccccc2N1)/C(Cl)=C(/Cl)Br` the figure was 14.3%; with `Cc1ccc(/C=N/NC(=O)NN(C)c2ncc(C(F)(F)F)cc2Cl)cc1`, 3.5%; with `Cn1c(NC(=O)c2ccc(S(=O)(=O)N3CCCCC3)cc2)cc(=O)n(C)c1=O`, 11.4%. As for `O=C(NNC(=O)c1ccc(Cl)c(Cl)c1)c1ccncc1`, the “hERG current change (%, negative = inhibition) at 1uM” value stood at 14.3%.

As for `COc1cccc(NC(=O)Nc2ccc3c(c2)nc(C)n3C)c1`, the “hERG current change (%, negative = inhibition) at 1uM” value is -7.91%. With `CNS(=O)(=O)c1cccc(C(=O)OCC(=O)Nc2ccc(N3CCCCC3)cc2)c1` the figure was 9.03%.

With `Clc1ccc2c(c1)c1cc(Cl)ccc1n2CN1CCOCC1`, the “hERG current change (%, negative = inhibition) at 1uM” value stood at 0.387%. With `C[C@@H](C(=O)OCC(=O)Nc1cc(S(=O)(=O)N2CCOCC2)ccc1Cl)N1C(=O)C2CCCCC2C1=O` (some centres unmarked) the figure was -7.57%. Under `CCN(CC)S(=O)(=O)c1ccc(C(=O)Oc2coc(CSc3nc(C)cc(C)n3)cc2=O)cc1` stands 0.0562%. With `N#Cc1nc(COc2ccccc2)oc1N1CCOCC1` the figure was 1.61%; with `c1ccc2c(N3CCOCC3)nc(-c3ccncc3)nc2c1`, -9%.

With `COc1cccc(C2N(c3ccc(Cl)cc3)C(=O)C3CCCN32)c1` (centres unmarked), the “hERG current change (%, negative = inhibition) at 1uM” value came to 9.95%.

For `C=CCNC(=O)c1c(N)n(-c2ccc3c(c2)OCO3)c2nc3ccccc3nc12`, the “hERG current change (%, negative = inhibition) at 1uM” value was 24.8%. With `COC(=O)c1cnn(-c2ccccc2)c1/C=N/NC(=S)Nc1ccc(Cl)cc1` the figure was 11.3%; with `CCn1ncc(Br)c1C(=O)Nc1ccccc1C(F)(F)F`, 7.62%; with `CCOC(=O)c1cccc(NC(=O)CCNS(=O)(=O)c2cccc3nonc23)c1`, 4.27%.

Take `CCN(Cc1ccccc1OC)CC1CCCN(CCc2cccc(OC)c2)C1` (centres unmarked): the “hERG current change (%, negative = inhibition) at 1uM” value was determined as 4.03%.

Turning to `CCC(CC)c1nnc(NC(=O)c2nn(C)c(=O)c3ccccc23)s1`, the “hERG current change (%, negative = inhibition) at 1uM” value is given as 7.84%. Under `O=c1[nH]c2ccccc2nc1/C=C/c1ccc(F)cc1` stands 6.51%; under `CCOC(=O)c1c(C)n(Cc2ccccc2)c2ccc(OCC(O)Cn3nc(C)nc3C)cc12` (centres unmarked), 13.6%. Turning to `C(=N\Nc1nccc(-c2cccnc2)n1)/c1ccccc1`, the “hERG current change (%, negative = inhibition) at 1uM” value was 8.62%. Under `COC(=O)Nc1ccc2ncn(C)c(=O)c2c1` stands 9.09%; under `O=C(CN(c1ccccc1)S(=O)(=O)c1ccc(Cl)cc1)Nc1cccnc1`, -5.73%; under `O=C(COc1ccc(C(=O)c2ccccc2)cc1)Nc1ncccc1O`, 15.9%.

As to `COc1ccccc1NCC(=O)Nc1cc(S(=O)(=O)N2CCOCC2)ccc1N1CCOCC1`, the “hERG current change (%, negative = inhibition) at 1uM” value is recorded as -12.4%.

On to `COC(=O)CSc1nnc(NC(=O)c2ccc3c(c2)OCO3)s1`, for which the “hERG current change (%, negative = inhibition) at 1uM” value is -13.7%. Under `COc1ccccc1-c1cn[nH]c1-c1ccc(O)cc1O` stands 16.2%. Turning to `COc1ccc(NC(=O)CN2CCN(c3ccc(Cl)cc3)CC2)c(OC)c1`, the “hERG current change (%, negative = inhibition) at 1uM” value stood at 8.1%.

Regarding `CCC1Oc2ccc(C)cc2N(CC(=O)NCCCN2CCN(Cc3ccccc3)CC2)C1=O` (centres unmarked), the “hERG current change (%, negative = inhibition) at 1uM” value was -8.06%.

The values are drawn from publication PMC4336329 (PLoS ONE, 2015).
